For test [1], the target named is T1, biotinylated human CD98 antigen (human, UniProt P08195 105-529, biotinylated with EZ-Link NHS-PEG4-Biotin (ELISA)).
T1 construct: extracellular domain
T1 sequence (looked up): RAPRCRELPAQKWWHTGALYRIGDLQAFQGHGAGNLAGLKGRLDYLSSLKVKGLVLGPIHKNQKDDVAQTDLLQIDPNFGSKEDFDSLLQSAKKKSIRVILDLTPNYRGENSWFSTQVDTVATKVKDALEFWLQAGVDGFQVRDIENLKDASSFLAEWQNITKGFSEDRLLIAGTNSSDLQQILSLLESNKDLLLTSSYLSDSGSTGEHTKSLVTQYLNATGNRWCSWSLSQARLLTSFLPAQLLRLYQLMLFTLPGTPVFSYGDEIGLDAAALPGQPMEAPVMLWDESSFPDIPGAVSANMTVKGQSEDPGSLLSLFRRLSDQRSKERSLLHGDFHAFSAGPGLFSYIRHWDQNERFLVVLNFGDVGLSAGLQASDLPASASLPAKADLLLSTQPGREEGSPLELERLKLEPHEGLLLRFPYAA
Description: ELISA pH 7.5 against pH 5.5.

The target in test [2] is T1, biotinylated human CD98 antigen. Description: ELISA on immobilised biotinylated human CD98 antigen, pH 5.5.

Here are results for four molecules from patent publication US20250170255A1 (Daiichi Sankyo, published 2025).

B1: anti-CD98 masked antibody MhM1026-M1 (antibody)
heavy: QVQLVQSGAEVKKPGASVKVSCKASGAAFSNYLIEWVRQAPGQGLEWMGVINPGSGVTNYNEKFKGRVTITADTSTSTAYMELSSLRSEDTAVYYCARAEAWFAYWGQGTLVTVSSASTKGPSVFPLAPSSKSTSGGTAALGCLVKDYFPEPVTVSWNSGALTSGVHTFPAVLQSSGLYSLSSVVTVPSSSLGTQTYICNVNHKPSNTKVDKRV[human IgG1 Fc not spelt out]
light: GNFYHQYPWPLEILGSGGGGSGGGHHHGGHHHGGHHHGGSDIVMTQSPDSLAVSLGERATINCKSSQSLLYSSNQKNYLAWYQQKPGQPPKLLIYWASTRESGVPDRFSGSGSGTDFTLTISSLQAEDVAVYYCQRYYGYPWTFGQGTKVEIKRTVAAPSVFIFPPSDEQLKSGTASVVCLLNNFYPREAKVQWKVDNALQSGNSQESVTEQDSKDSTYSLSSTLTLSKADYEKHKVYACEVTHQGLSSPVTKSFNRGEC
notes: Full-length entries
Broadly, the EC50 (read off the curve) is the midpoint of the concentration-response curve. For B1, the “Comparison of EC50 ratio (neutral pH/acidic pH, relative to MhM1026-M1 designated as 1)” value in test [1] was found to be 1. The “EC50 (read off the curve)” value in test [2] is about 8 nM.

B2: anti-CD98 masked antibody MhM1045-M1 (antibody)
heavy: QVQLVQSGAEVKKPGASVKVSCKASGAAFSNYLIEWVRQAPGQGLEWMGVINPGSGVTNYNEKFKGRVTITADTSTSTAYMELSSLRSEDTAVYYCARAEAWFAYWGQGTLVTVSSASTKGPSVFPLAPSSKSTSGGTAALGCLVKDYFPEPVTVSWNSGALTSGVHTFPAVLQSSGLYSLSSVVTVPSSSLGTQTYICNVNHKPSNTKVDKRV[human IgG1 Fc not spelt out]
light: GNFYHQYPWPLEILGSGGGGSGGKHHHGGHHHGGHHHGGSDIVMTQSPDSLAVSLGERATINCKSSQSLLYSSNQKNYLAWYQQKPGQPPKLLIYWASTRESGVPDRFSGSGSGTDFTLTISSLQAEDVAVYYCQRYYGYPWTFGQGTKVEIKRTVAAPSVFIFPPSDEQLKSGTASVVCLLNNFYPREAKVQWKVDNALQSGNSQESVTEQDSKDSTYSLSSTLTLSKADYEKHKVYACEVTHQGLSSPVTKSFNRGEC
notes: Lys near the His cluster; Full-length entries
Consider B2, for which the “Comparison of EC50 ratio (neutral pH/acidic pH, relative to MhM1026-M1 designated as 1)” value in test [1] was determined as 1.

B3: anti-CD98 masked antibody MhM1044-M1 (antibody)
heavy: QVQLVQSGAEVKKPGASVKVSCKASGAAFSNYLIEWVRQAPGQGLEWMGVINPGSGVTNYNEKFKGRVTITADTSTSTAYMELSSLRSEDTAVYYCARAEAWFAYWGQGTLVTVSSASTKGPSVFPLAPSSKSTSGGTAALGCLVKDYFPEPVTVSWNSGALTSGVHTFPAVLQSSGLYSLSSVVTVPSSSLGTQTYICNVNHKPSNTKVDKRV[human IgG1 Fc not spelt out]
light: GNFYHQYPWPLEILGSGGGGSGGGHHHGKHHHGGHHHGGSDIVMTQSPDSLAVSLGERATINCKSSQSLLYSSNQKNYLAWYQQKPGQPPKLLIYWASTRESGVPDRFSGSGSGTDFTLTISSLQAEDVAVYYCQRYYGYPWTFGQGTKVEIKRTVAAPSVFIFPPSDEQLKSGTASVVCLLNNFYPREAKVQWKVDNALQSGNSQESVTEQDSKDSTYSLSSTLTLSKADYEKHKVYACEVTHQGLSSPVTKSFNRGEC
notes: as for B2
For B3, the “Comparison of EC50 ratio (neutral pH/acidic pH, relative to MhM1026-M1 designated as 1)” value in test [1] is 1.1.

B4: anti-CD98 masked antibody MhM1046-M1 (antibody)
heavy: QVQLVQSGAEVKKPGASVKVSCKASGAAFSNYLIEWVRQAPGQGLEWMGVINPGSGVTNYNEKFKGRVTITADTSTSTAYMELSSLRSEDTAVYYCARAEAWFAYWGQGTLVTVSSASTKGPSVFPLAPSSKSTSGGTAALGCLVKDYFPEPVTVSWNSGALTSGVHTFPAVLQSSGLYSLSSVVTVPSSSLGTQTYICNVNHKPSNTKVDKRV[human IgG1 Fc not spelt out]
light: GNFYHQYPWPLEILGSGGGGSGGGHHHGGHHHGKHHHGGSDIVMTQSPDSLAVSLGERATINCKSSQSLLYSSNQKNYLAWYQQKPGQPPKLLIYWASTRESGVPDRFSGSGSGTDFTLTISSLQAEDVAVYYCQRYYGYPWTFGQGTKVEIKRTVAAPSVFIFPPSDEQLKSGTASVVCLLNNFYPREAKVQWKVDNALQSGNSQESVTEQDSKDSTYSLSSTLTLSKADYEKHKVYACEVTHQGLSSPVTKSFNRGEC
notes: as for B2
With B4, in test [1], the “Comparison of EC50 ratio (neutral pH/acidic pH, relative to MhM1026-M1 designated as 1)” value came out at 1.1.
